# According to PubChem BioAssay AID624417 (National Center for Advancing Translational Sciences (NCATS), 2012):
# About 6,400 (1.6%) of roughly 410,000 compounds were called active. The shares of active, inactive and inconclusive entries below differ from those in the screen. Calls follow the shape of the dose curve; as a rule, active = well fitted inhibition curve with a large enough effect; inconclusive = small, poorly fitted or top-dose-only effect; inactive = no such curve, though single readings can be large or run the other way. No potency is given beside an inconclusive call; the fits are too rough.
# Target: Glucagon-like peptide 1 receptor (Homo sapiens) (UniProt P43220)
# Assay: qHTS of GLP-1 Receptor Inverse Agonists (Inhibition Mode); also: nearly all actives have a fitted effect of over 55% in size
# Conditions: HEK293 GLP-1R CRE-luciferase, luminescence, 24 h, GLP-1R form is constitutively active; series mostly up to 38.3 µM
# In short: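 Constitutively active GLP-1R drives a cAMP-responsive luciferase in stably transfected HEK293 cells; test compounds are added after overnight (12 h) attachment and left 24 hr, and signal loss in luminescence marks inhibition.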
# Potency is read from the fitted curve at half-maximal effect; tags tell the direction and shape of the fitted curve.
# Chain of UniProt P43220 (P43220 whole entry, looked up): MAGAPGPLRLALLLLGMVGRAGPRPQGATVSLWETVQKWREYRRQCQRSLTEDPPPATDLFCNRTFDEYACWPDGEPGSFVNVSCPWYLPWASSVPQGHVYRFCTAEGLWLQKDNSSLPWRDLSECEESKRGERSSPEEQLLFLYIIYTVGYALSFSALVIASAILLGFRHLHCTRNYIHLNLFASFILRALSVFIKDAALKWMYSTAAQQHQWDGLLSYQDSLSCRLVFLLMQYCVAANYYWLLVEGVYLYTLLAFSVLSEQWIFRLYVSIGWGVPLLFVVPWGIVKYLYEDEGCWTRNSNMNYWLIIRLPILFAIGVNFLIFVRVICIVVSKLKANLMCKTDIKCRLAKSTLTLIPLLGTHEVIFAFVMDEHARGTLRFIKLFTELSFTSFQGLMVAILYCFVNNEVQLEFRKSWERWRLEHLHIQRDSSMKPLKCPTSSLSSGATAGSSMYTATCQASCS
row,SMILES,Potency
1,O=C(NCCSc1c[nH]c2ccccc12)c1ccc(Br)o1,"inconclusive [inhibitor, single point]"
2,CCN1C(=O)[C@H]2[C@@H](c3ccc(-c4ccc5c(c4)OCO5)cc3)N[C@@](Cc3ccccc3)(C(=O)OC)[C@H]2C1=O,inactive
3,CCOc1ccc(Nc2cc(C)nc3nncn23)cc1,inactive
4,COCC(C)n1c(SCc2ccc(OC)c(F)c2)nc2ccccc2c1=O (configuration not stated),"inconclusive [inhibitor, partial curve, poor fit]"
5,COc1ccc(NC(=O)c2cc3c(-c4ccccc4F)nn(C)c3s2)c(OC)c1,inactive
6,CCc1nc2c(OCC3CCCCC3)cccn2c1N(C=O)Cc1ccc(OC)cc1,"inconclusive [inhibitor, single point]"
7,Cc1ccccc1NC(=O)C(=O)NCC(c1ccc2c(c1)OCO2)N1CCN(c2ccccc2)CC1 (configuration not stated),inactive
8,CCCn1cnc2cc(NCc3cccc(OC)c3)ccc21,inactive
9,Cc1ccc(-c2nn(-c3cccc(F)c3)cc2CNCc2cccnc2)o1,"inconclusive [inhibitor, single point]"
10,Cc1ccc(-n2cc(CNCCn3nc(C)cc3C)c(-c3ccc(F)cc3)n2)cc1,"inconclusive [inhibitor, partial curve, poor fit]"
11,O=C(NC1CCCN(Cc2ccc(Cl)cc2)C1)c1ccccc1C(F)(F)F (configuration not stated),"inconclusive [inhibitor, partial curve, poor fit]"
12,CCOC(=O)C1(Cc2ccc(OC)cc2)CCN(C(=O)CN2CCN(CC)CC2)CC1,"inconclusive [inhibitor, full curve]"
13,COc1ccccc1-c1nnc2sc(COc3ccc(Cl)cc3)nn12,"inconclusive [inhibitor, single point]"
14,CCCN(C(=O)c1cc(S(=O)(=O)N2CCc3ccccc32)cn1C)c1ccc(OCC)cc1,"inconclusive [inhibitor, single point]"
15,COC(=O)[C@H](Cc1c[nH]c2ccccc12)NC(=O)Cc1c[nH]c2ccccc12,"inconclusive [inhibitor, partial curve]"
16,CCN(Cc1ccccc1)C(=O)c1oc2ccc(S(=O)(=O)N3CCOCC3)cc2c1C,"inconclusive [inhibitor, single point]"
17,O=c1c2ccccc2ncn1-c1ccc([N+](=O)[O-])cc1Cl,"inconclusive [inhibitor, single point]"
18,COc1ccc(S(=O)(=O)Oc2ccc3cccc(N)c3c2)cc1,"inconclusive [inhibitor, single point]"
19,COc1ccc(CC(N)c2csc(NC(=O)c3ccc(OC)cc3)n2)cc1 (configuration not stated),"inconclusive [inhibitor, single point]"
20,O=C(Nc1ccccc1O)C(c1ccccc1)c1ccccc1,"inconclusive [inhibitor, partial curve, poor fit]"
21,COc1ccc(OC)c(NC(=O)NC2CCCCCCC2)c1,"inconclusive [inhibitor, partial curve, poor fit]"

row,SMILES,Potency
1,Cc1sc2ncnc(N3CCC(C(=O)NNC(=O)COc4cccc(C(F)(F)F)c4)CC3)c2c1C,"inconclusive [inhibitor, single point]"
2,Cc1cc(C)n(-c2cc(N3CCN(S(=O)(=O)c4ccc(C)c(C)c4)CC3)ccc2[N+](=O)[O-])n1,inactive
3,COc1ccc(NC(=O)Nc2ccc3c(c2)C(=O)N([C@@H](C)CO)C[C@@H](C)[C@@H](CN(C)CC2CCCCC2)O3)cc1,"inconclusive [inhibitor, single point]"
4,Cc1ccc(CNC(=O)CN2C(=O)CSc3ccc(S(=O)(=O)N4CCCCC4)cc32)cc1,"inconclusive [inhibitor, partial curve, poor fit]"
5,CCOc1ccc(-c2cc(NC(=O)c3ccccc3)c(C(=O)OC)s2)cc1,inactive
6,O=C(CC(=O)c1ccccc1)c1ccccc1,"inconclusive [inhibitor, single point]"
7,Cc1cc(C)c(NC(=O)Cn2c(=O)oc3cc(S(=O)(=O)N4CCCCCC4)ccc32)c(C)c1,"inconclusive [inhibitor, partial curve, poor fit]"
8,COc1cccc(NC(=O)NCc2ccc(F)cc2)c1,"inconclusive [inhibitor, single point]"
9,COC(=O)C1=C(C)N(Cc2ccccc2)C(=NCC(C)C)N[C@H]1c1cccc(C(F)(F)F)c1,"inconclusive [inhibitor, partial curve, poor fit]"
10,CCN1C(=O)C(CC(=O)Nc2ccc(F)cc2)N(Cc2cccs2)C1=S (configuration not stated),"inconclusive [inhibitor, partial curve]"
11,Cn1ccsc1=NC(=O)c1ccc([N+](=O)[O-])o1,inactive
12,COc1ccc([C@H]2C[C@@H](n3cc(-c4ccc(F)cc4)nn3)[C@H](O)CN2C(=O)c2cccs2)cc1,"inconclusive [inhibitor, single point]"
13,O=C(NCCc1ccc(Cl)cc1)C1CCN(Cc2cc3ccccc3n2Cc2ccccc2)CC1,"inconclusive [inhibitor, single point]"
14,COc1ccc(CCNC(=O)CCc2cn(Cc3ccccc3Cl)c3ccccc23)c(OC)c1,"inconclusive [inhibitor, partial curve, poor fit]"
15,Cc1ccc(Cc2nc3ccccc3nc2SCC(=O)N2CCC(C)CC2)cc1,"inconclusive [inhibitor, single point]"
16,CCN(CC)C(=O)c1cc(-c2ccc(Br)cc2)on1,inactive
17,Cc1ccc(F)cc1S(=O)(=O)NCc1ccc(N2CCN(C)CC2)cc1,"inconclusive [inhibitor, full curve, poor fit]"
18,O=S(=O)(c1ccc(F)c(F)c1)N1CCCc2ccccc21,"inconclusive [inhibitor, single point]"
19,CCOc1ccc(NC(=O)c2cc([N+](=O)[O-])ccc2N2CCOCC2)cc1,"inconclusive [inhibitor, partial curve, poor fit]"
20,Fc1ccc(CN2CCc3nc(N4CCN(c5ccccc5F)CC4)ncc3C2)c(F)c1,inactive
21,COc1ccc(S(=O)(=O)N2CCCC2CNC(=O)C(=O)NCc2ccccc2Cl)cc1 (configuration not stated),"inconclusive [inhibitor, partial curve, poor fit]"

row,SMILES,Potency
1,COc1ccc(N2CCN(C(CNS(=O)(=O)c3ccc(OC)c(C)c3)c3ccco3)CC2)cc1 (configuration not stated),"inconclusive [inhibitor, partial curve]"
2,COc1ccc(N2CCN(CCCn3c(=S)[nH]c4ccccc4c3=O)CC2)cc1,inactive
3,COc1ccc(C(=O)NC(=S)Nc2cc3oc4ccccc4c3cc2OC)cc1,inactive
4,CC1CCCC(C)N1CCCNC(=O)c1ccc2c(c1)NC(=O)c1ccccc1S2 (configuration not stated),"inconclusive [inhibitor, single point]"
5,Nc1c(C(=O)Nc2ccccc2Br)sc2nc(-c3cccs3)ccc12,"inconclusive [inhibitor, partial curve, poor fit]"
6,CSc1cccc(NC(=S)N(CCCN2CCC(C)CC2)Cc2cccs2)c1,"inconclusive [inhibitor, partial curve, poor fit]"
7,COc1ccc(C(=O)Nc2oc(-c3ccccc3)c(-c3ccccc3)c2C#N)cc1,"inconclusive [inhibitor, partial curve, poor fit]"
8,COC(=O)c1ccc(C(=O)OC)c(NC(=S)N2CC(C)CC(C)C2)c1 (configuration not stated),"inconclusive [inhibitor, single point]"
9,Cc1cccc(C)c1NC(=O)C(c1ccc(C#N)cc1)n1c(=O)c(-c2ccccc2)nc2ccccc21 (configuration not stated),"inconclusive [inhibitor, partial curve, poor fit]"
10,CCC1Sc2ccccc2N(CC(=O)NCc2ccc(C)cc2)C1=O (configuration not stated),"inconclusive [inhibitor, single point]"
11,COc1ccc([N+](=O)[O-])cc1NC(=O)CSc1ccccc1,"inconclusive [inhibitor, single point]"
12,CCN(CC)Cc1c(C(=O)N/N=C/c2c(Cl)cccc2Cl)nnn1-c1nonc1N,inactive
13,O=C(CNC(=O)c1ccc2c(c1)OCO2)NCCOc1ccc(Cl)cc1,"inconclusive [inhibitor, single point]"
14,Cc1nn(CC(=O)NC(C)CCc2ccccc2)c(=O)c2nn(-c3ccccc3)c(C)c12 (configuration not stated),"inconclusive [inhibitor, single point]"
15,CC1CN(C(=O)C(C)Sc2nc3ccccc3s2)CC(C)O1 (configuration not stated),"inconclusive [inhibitor, full curve]"
16,Cc1ccc(NC(=O)NC(=S)NC(=O)c2ccccc2)cc1,"inconclusive [inhibitor, single point]"
17,COc1cccc(NC(=O)C(=O)NCCC2CCCCN2S(=O)(=O)c2ccccc2)c1 (configuration not stated),"inconclusive [inhibitor, partial curve, poor fit]"
18,O=C(Cn1ccc2cc(S(=O)(=O)N3CCCCCC3)ccc21)NCc1ccccc1Cl,"inconclusive [inhibitor, single point]"
19,COc1cccc(NC(=O)c2c(C)nn(-c3cccc(C)c3)c2-n2cccc2)c1,"inconclusive [inhibitor, single point]"
20,Cc1ccc(S(=O)(=O)NCCCCCCNS(=O)(=O)c2ccc(C)cc2)cc1,"inconclusive [inhibitor, single point]"
